Measurements taken from PubChem BioAssay (NCATS).
Several values for one entry are separate records, joined by “and”; a condition that tells them apart may be missing. Equal values may be shown once. The inconclusive results got no clear call from the source; some entries with a clear call stand among them for comparison. Potencies of inconclusive entries are doubtful fits and often do not repeat. Activity calls are given as the source filed them. The call rests on the fitted dose curve; in most records, active means well fitted curve in the direction sought with a large enough effect; inconclusive means small, poorly fitted or top-dose-only effect, or another doubt; inactive means no such curve, though single readings can be large; an effect the other way counts as inactive or inconclusive.

Experiments:
[1] = qHTS of pediatric cancer cell lines to identify multiple opportunities for drug repurposing: Primary screen for NB-EBc1 cells (AID 1347095); conditions: NB-EBc1 neuroblastoma viability, CellTiter-Glo luminescence, 48 h; series mostly up to 46 µM
In short: (§1)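 Cells plated at 500-1,000/well in growth medium, compounds added after 5 h. MIPE tested at 11 points (from 0.78 nM), NPC at 8 points (from 0.59 nM). CellTiter-Glo luminescence after 48 h; concentration-response curves from primary screen.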

[2] = qHTS of pediatric cancer cell lines to identify multiple opportunities for drug repurposing: Primary screen for U-2 OS cells (AID 1347096); conditions: U-2 OS viability, CellTiter-Glo luminescence, 48 h; series mostly up to 46 µM; further: nearly all actives have a fitted effect of over 50% in size
In short: (§2)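 Viability after 48 h compound treatment at 37C, 500-1,000 cells/well, read as ATP luminescence with CellTiter-Glo. Primary screens used 11-point (MIPE, 0.78 nM-46 µM) or 8-point (NPC, 0.59 nM-46 µM) final concentrations; follow-up screens used 11-point dilutions.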

[3] = qHTS of pediatric cancer cell lines to identify multiple opportunities for drug repurposing: Primary screen for Saos-2 cells (AID 1347097); conditions: Saos-2 viability, CellTiter-Glo ATP luminescence, 48 h; activity change, negative = cytotoxic: at 46 µM (top of the series); further: nearly all actives have a fitted effect of over 40% in size
In short: as §1

[4] = qHTS of pediatric cancer cell lines to identify multiple opportunities for drug repurposing: Primary screen for SK-N-SH cells (AID 1347098); conditions: SK-N-SH viability, CellTiter-Glo luminescence, 48 h; activity change, negative = cytotoxic: at 57 µM (top of the series); further: nearly all actives have a fitted effect of over 65% in size
In short: (§3)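 Cells (500-1,000/well) rested 5 h, then received compounds for 48 h; metabolically active cells were measured by CellTiter-Glo luminescence. Final concentrations spanned up to 46 µM (MIPE, 11-point) or 0.59 nM-46 µM (NPC, 8-point) in primary screens, 11-point in follow-ups.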

[5] = qHTS of pediatric cancer cell lines to identify multiple opportunities for drug repurposing: Primary screen for NB1643 cells (AID 1347099); conditions: NB1643 neuroblastoma viability, CellTiter-Glo luminescence, 48 h; series mostly up to 46 µM; further: nearly all actives have a fitted effect of over 50% in size
In short: as §1

[6] = qHTS of pediatric cancer cell lines to identify multiple opportunities for drug repurposing: Primary screen for LAN-5 cells (AID 1347100); conditions: LAN-5 neuroblastoma viability, CellTiter-Glo luminescence, 48 h; activity change, negative = cytotoxic: at 46 µM (top of the series)
In short: as §2

[7] = qHTS of pediatric cancer cell lines to identify multiple opportunities for drug repurposing: Primary screen for BT-12 cells (AID 1347101); conditions: BT-12 viability, CellTiter-Glo luminescence, 48 h; series mostly up to 57.3 µM; further: nearly all actives have a fitted effect of over 25% in size
In short: as §3

[8] = qHTS of pediatric cancer cell lines to identify multiple opportunities for drug repurposing: Primary screen for Rh18 cells (AID 1347102); conditions: Rh18 rhabdomyosarcoma viability, CellTiter-Glo luminescence, 48 h; series mostly up to 46 µM; further: nearly all actives have a fitted effect of over 65% in size
In short: as §2

[9] = qHTS of pediatric cancer cell lines to identify multiple opportunities for drug repurposing: Primary screen for OHS-50 cells (AID 1347103); conditions: OHS-50 osteosarcoma viability, CellTiter-Glo luminescence, 48 h; series mostly up to 57.3 µM; further: nearly all actives have a fitted effect of over 40% in size
In short: as §3

[10] = qHTS of pediatric cancer cell lines to identify multiple opportunities for drug repurposing: Primary screen for RD cells (AID 1347104); conditions: RD rhabdomyosarcoma viability, CellTiter-Glo luminescence, 48 h; series mostly up to 46 µM; further: nearly all actives have a fitted effect of over 55% in size
In short: as §1

Measured: Potency
Potency means the concentration at half of the fitted maximal effect; tags describe the fitted curve by direction and shape.

OCCN(CCO)c1nc(N2CCCCC2)c2nc(N(CCO)CCO)nc(N3CCCCC3)c2n1
inconclusive: [1] 14.8 µM [cytotoxic, partial curve] | [2] 18.7 µM [cytotoxic, partial curve, poor fit] | [3] 29.6 µM [cytotoxic, partial curve] and 29.9 µM [cytotoxic, single point] | [4] 38.3 µM [cytotoxic, single point] and 24.4 µM [cytotoxic, partial curve, poor fit] | [5] 14.8 µM [cytotoxic, partial curve] | [6] 26.4 µM [cytotoxic, single point] | [7] 27.3 µM [cytotoxic, single point] and 24.6 µM [cytotoxic, single point] | [8] 29.6 µM [cytotoxic, partial curve, poor fit] | [9] 38.9 µM [cytotoxic, single point]

CCOC(CN1C(=O)[C@](CC(=O)Nc2ccc(C)cc2)(NC(=O)Nc2ccc(C)cc2)c2ccccc21)OCC
inconclusive: [1] 33.2 µM [cytotoxic, single point] | [3] 14.8 µM [cytotoxic, partial curve] | [6] 33.2 µM [cytotoxic, single point] | [7] 43.2 µM [cytotoxic, single point] | [9] 19.3 µM [cytotoxic, single point]
inactive: [2]

CO[C@@H](C(=O)N1Cc2[nH]nc(NC(=O)c3ccc(N4CCN(C)CC4)cc3)c2C1)c1ccccc1
inconclusive: [1] 0.526 µM [cytotoxic, full curve] | [7] 0.485 µM [cytotoxic, full curve] | [9] 15.3 µM [cytotoxic, partial curve, poor fit]
active: [2] 18.7 µM | [3] 0.833 µM | [6] 0.0372 µM | [10] 5.26 µM

O=C(O)c1c(Cl)c(Cl)c(Cl)c(Cl)c1-c1c2cc(I)c(=O)c(I)c-2oc2c(I)c(O)c(I)cc12
active: [4] 24.1 µM
inconclusive: [1] 8.33 µM [cytotoxic, partial curve] | [2] 9.35 µM [cytotoxic, partial curve] | [3] 3.72 µM [cytotoxic, full curve] | [5] 14.8 µM [cytotoxic, partial curve] | [6] 13.2 µM [cytotoxic, partial curve, poor fit] | [7] 17.2 µM [cytotoxic, partial curve] | [8] 14.8 µM [cytotoxic, partial curve] | [10] 14.8 µM [cytotoxic, partial curve]

COc1ccc(-c2nc3ccc(C4=NNC(=O)CC4C)cc3[nH]2)cc1 (stereo not given)
inconclusive: [3] 23.7 µM [cytotoxic, partial curve] | [5] 18.7 µM [cytotoxic, single point] | [6] 18.8 µM [cytotoxic, partial curve] | [7] 15.5 µM [cytotoxic, partial curve] | [9] 38.9 µM [cytotoxic, single point] | [10] 33.5 µM [cytotoxic, single point]
inactive: [2]
active: [1] 11.9 µM

COc1cc([C@@H]2c3cc4c(cc3[C@H](O)[C@H]3COC(=O)[C@@H]23)OCO4)cc(OC)c1OC
inconclusive: [2] 0.372 µM [cytotoxic, full curve, poor fit] | [5] 0.0833 µM [cytotoxic, full curve] | [10] 0.0833 µM [cytotoxic, full curve]
active: [1] 0.0209 µM | [3] 0.118 µM | [6] 0.0833 µM | [7] 0.273 µM

Clc1ccccc1C(c1ccccc1)(c1ccccc1)n1ccnc1
inconclusive: [1] 26.6 µM [cytotoxic, single point] and 26.4 µM [cytotoxic, single point] | [2] 18.7 µM [cytotoxic, partial curve] | [4] 24.4 µM [cytotoxic, partial curve] | [5] 33.5 µM [cytotoxic, single point] and 23.5 µM [cytotoxic, single point] | [6] 21.1 µM [cytotoxic, single point] | [7] 21.9 µM [cytotoxic, single point] and 30.6 µM [cytotoxic, single point] | [8] 14.8 µM [cytotoxic, partial curve] | [9] 43.7 µM [cytotoxic, single point] and 19.3 µM [cytotoxic, partial curve, poor fit] | [10] 23.7 µM [cytotoxic, partial curve]
